# From the supplement of paper PMC11417369
# ± gives the standard deviation of the averaged measurements. The list shows a part of the results.
# Test system: PfAP2-LT AP2 domain (GST-tagged)
# Assay: gcPBM binding intensity (ln(normalized median fluorescence intensity)); higher = stronger DNA binding
# How it was run: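 GST-tagged P. falciparum DNA-binding domains produced in E. coli were incubated for 1 h on an Agilent 4 × 180k array of primer-extended double-stranded 36-bp intergenic genomic probes with negative controls. Binding intensity is the highest Masliner-normalised natural-log median intensity across replicate spots of either probe orientation, with bound protein detected by Alexa488 anti-GST antibody at 488 nm.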
row,Sequence,gcPBM binding intensity (ln)
1,TATATATTTCGGTGTGCACACTTTTTATTTTTATCC [CACACA_site1726],9.57 ± 0.41
2,TATATATATATATGTACACACATATATACCTTTCAT [CACACA_site2679],9.75 ± 0.44
3,GGAATGTAGGGTTTTACCAAAATAAAAATAACCATA [XGTACX_negctrl_site492],8.71 ± 0.54
4,CACTTAACACAAGAGTGTACACATATATATATATAT [XGTACX_site686],9.53 ± 0.33
5,TTGTACGCAAAAAAAAAAAAAAAAAAATTAAAATTT [TGCATGCA_negctrl_site586],8.18 ± 0.45
6,TTTTTCTCTTTAAGGTGTACAATAATACAGTAACCA [XGTACX_site300],8.46 ± 0.39
7,ATATTAGTAACACAGACACACAAAAAAAAAAAAAAA [CACACA_site2176],9.01 ± 0.59
8,AGGAAAATACCTTAATGTACATAGAAAAGTAACATT [XGTACX_site8011],8.88 ± 0.4
9,TTTTTTATTATCAAAACATGCATTTTTTAAATGGAA [TGCATGCA_site557],8.11 ± 0.35
10,TAATGAAATATACAGAGTACATTCTGTATATAGGAT [XGTACX_site7691],8.93 ± 0.42
11,TATATATGTATATATATAAATATATATATATATATA [TGCATGCA_negctrl_site605],9.26 ± 0.22
12,GCATAAGAAAATAATTGTACAATTTACATACATAAA [XGTACX_site8286],8.78 ± 0.52
13,TACTCAAAAATTAATTAGCATAATATATATAAAAAT [GTGCAC_negctrl_site613],8.49 ± 0.45
14,TATAAATATATATACACACACACATTAATACATATA [CACACA_site3488],9.76 ± 0.28
15,TTAAGAAGTTCTAAATGTACATACATAACCACGTTA [XGTACX_site7514],8.62 ± 0.33
16,ATAATATTTTCTTCTTATTGAATGCTTTAAATTTAC [CACACA_negctrl_site1273],8.62 ± 0.5
17,GGGAAATATTGAAACACACACGAACGCACGTATTTC [CACACA_site6258],9.31 ± 0.26
18,TTAAACCGTGGGAGCACACACACACCCCCACCCATA [CACACA_site331],10.1 ± 0.17
19,ACAAATAAGTTTTGTAGTACTGTGTATATATATATA [XGTACX_site6901],9.21 ± 0.35
20,TTTGTATATTATTTTAGTACATAACATTGAAGATAT [XGTACX_site6680],8.49 ± 0.39
21,ATATAAGGATTAATATGTACATATATATATATATTT [XGTACX_site1390],8.95 ± 0.42
22,TATTTTGAAACTAAAAGACATAGAGAAAACAAAAAA [CACACA_negctrl_site1306],8.54 ± 0.43

row,Sequence,gcPBM binding intensity (ln)
1,AAATAATGTTTGAATTGTACACATATTTGTGTTTCT [XGTACX_site4603],9.01 ± 0.52
2,ATGTTGCACAGTGGAAGAATTAAAAATAAATAAATA [XGTACX_negctrl_site581],8.65 ± 0.72
3,GTGGAACGTATATTTTCACACACTCTCAAAAGTACA [CACACA_site8722],8.93 ± 0.47
4,GTGGAACATATGAACTCACACACATTTTCACTTAAA [CACACA_site3683],9.15 ± 0.45
5,ATGAACATATCAATTCTCAAAATAGGATGAGAGCAT [CACACA_negctrl_site230],8.87 ± 0.52
6,AATTTTTGTATTTTTAGTACTTAATTTCAAAATAAC [XGTACX_site4234],8.38 ± 0.36
7,AATATTATAAATGTCACACATATATTCAAATATATA [CACACA_site4736],8.62 ± 0.37
8,TTATAGAAAATGGAATAGAATGGAATGGAAGAAATA [CACACA_negctrl_site1086],8.72 ± 0.49
9,ATTATATATAAGAAGAGTACTGAATATGTGCAATAT [XGTACX_site4471],8.88 ± 0.32
10,TATATACACCCACATACACACAAATAAAAAAACACC [CACACA_site3414],9.64 ± 0.31
11,GACATTGATACCAGTAGTACCTATAGATGTTTGTTT [XGTACX_site5736],8.99 ± 0.42
12,TTATGGAATAATCACGTACACACAAGAAAAAAAAAA [CACACA_site526],9.07 ± 0.46
13,ATGGTACATACATACACACACACAAAAAAAAAAAAA [CACACA_site1578],9.8 ± 0.67
14,GTTCAATTTTTAGGAAGTACAAAAAAAAAAAAGAAA [XGTACX_site7286],8.44 ± 0.6
15,CAAACCTATATACAAACATGCAATCCACATATTGGT [TGCATGCA_site756],8.97 ± 0.4
16,TATATTAGTGTTGACACACACAAAAAAAAAAAAAAA [CACACA_site1396],8.98 ± 0.4
17,TATATTTGTATTGTTTGTACTTATATGAATTTATAT [XGTACX_site4228],8.9 ± 0.45
18,TAATGAAATTGTAGTAGTACCTTCTTATAAATAAAA [XGTACX_site6747],8.32 ± 0.53
19,TCACCTATTTTTAACTGTACTGAAATGATATATATA [XGTACX_site1366],8.71 ± 0.29
20,TATAAAAAAAAAAAATATATATATATATAAATATAA [TGCATGCA_negctrl_site367],8.65 ± 0.37
21,TAAAAATATTTTCATTGTACATATATATAAATATAT [XGTACX_site1123],8.56 ± 0.42
22,TAAGAAAAAAAAAAAAAAAAAAAAAAAAAAAAAAAA [CACACA_negctrl_site760],8.125 ± 0.021
